This is an account of results in paper PMC7819943, “Rice protein-binding microarrays: a tool to detect cis-acting elements near promoter regions in rice”.

The other results are listed elsewhere or left out.

For the test, the target named is T1, OsWOX13 (Oryza sativa, UniProt Q5QMM3 1-267).
T1 sequence: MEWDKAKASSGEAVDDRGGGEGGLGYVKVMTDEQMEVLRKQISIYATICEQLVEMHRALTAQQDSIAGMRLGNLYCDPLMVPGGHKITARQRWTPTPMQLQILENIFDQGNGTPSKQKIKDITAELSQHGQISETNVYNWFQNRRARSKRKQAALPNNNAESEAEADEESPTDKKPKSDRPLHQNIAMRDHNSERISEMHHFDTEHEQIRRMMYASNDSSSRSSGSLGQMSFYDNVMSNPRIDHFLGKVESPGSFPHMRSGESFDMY
Nature of the test: protein-binding microarray (RPBM); PBS, 2% BSA, 51.3 ng/ul salmon testes DNA, 50 uM zinc acetate, 200 nM TF, 25 C, 1 h; high values mean tight binding. To be noted: protein: recombinant; tags: N-terminal polyhistidine and DsRed monomer fusion (pET32a); label: CyDye5-dUTP incorporated in the synthesized complementary strand; 3' TTTTT single-stranded linker to array surface; dsDNA, one strand shown. In outline:
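The binding signal for each feature is its fluorescence intensity in arbitrary units. An Axon 4000B scanner was used to read a custom Agilent array that had been made double-stranded with Cy5-dUTP primer extension, blocked with 2% BSA, incubated at 25 °C for 1 h with 200 nM protein in PBS, 2% BSA, salmon testes DNA and 50 µM zinc acetate, and washed. The protein was an N-terminal polyhistidine–DsRed transcription factor fusion from E. coli BL21-CodonPlus, purified on Ni–NTA.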
Turning to “ATTGCATTGATTTACTGTGCTATTCACATGAACAGTAACCCGGAGTCACCTAGTGCAG”, the binding signal is 11800 fluorescence intensity (a.u.).
Next, “TAATAAATTATAACAAATGTAGTTACATTTTAACTTCAAACGGAGTCACCTAGTGCAG”: 11300 fluorescence intensity (a.u.); “CGCCTGAGCTAATGTGATTGCAACGTGAGACACGGACGGACGGAGTCACCTAGTGCAG”: 6470 fluorescence intensity (a.u.); “GGTGAAATTGATAATTCATCTAACAAGTAGATCACATATTCGGAGTCACCTAGTGCAG”: 35000 fluorescence intensity (a.u.).
Next, “AGGACGTCAAAGATTGGAAAATTAACTTCATGGAATGACACGGAGTCACCTAGTGCAG”: 7560 fluorescence intensity (a.u.); “TTAGTCCATGATTAGCCATAAGTGCTACAGTAAACCACATCGGAGTCACCTAGTGCAG”: 9190 fluorescence intensity (a.u.); “CTAATTAGCACAGTTGCACACATGTTTTAGCCTTTTGGTCCGGAGTCACCTAGTGCAG”: 6930 fluorescence intensity (a.u.).
As for “TTAGCAGAAACCACATGTGATTAGTGATTCCTTGGGTTCCCGGAGTCACCTAGTGCAG”, the binding signal is 3360 fluorescence intensity (a.u.).
As for “TTTACATTTTCTTCAATTTTGATTGCAAATGCCAAGTAAGCGGAGTCACCTAGTGCAG”, the binding signal is 7140 fluorescence intensity (a.u.).
Next, “ATTGTAATAATCTATCATAATAATTAACTTGTTTGTTTCACGGAGTCACCTAGTGCAG”: 16900 fluorescence intensity (a.u.); “TTATATGATGATCAATTTAGAAAGGAGAGAGTATTTAGTTCGGAGTCACCTAGTGCAG”: 12200 fluorescence intensity (a.u.); “CACAATCAGAGAGGAAATTGAGCTTATGAGTAAGTCAATCCGGAGTCACCTAGTGCAG”: 7020 fluorescence intensity (a.u.).
Next, “ATGTTCCTGATTACCCGGTTAGTAAAATTTGAATCGTACTCGGAGTCACCTAGTGCAG”: 10600 fluorescence intensity (a.u.); “GGGTGGAGTAGATTGATAATACGGGTGTAGTTCGAGGGTCCGGAGTCACCTAGTGCAG”: 26100 fluorescence intensity (a.u.).
Next, “TTCAACCAATTGACAGACCGCATTTGGTACAGCGTCAATTCGGAGTCACCTAGTGCAG”: 17400 fluorescence intensity (a.u.); “TAAGCTTAATTAGTCTAATGATGGATTAATTAAGCTTAATCGGAGTCACCTAGTGCAG”: 32400 fluorescence intensity (a.u.).
On to “AATTACTGATTGGTCATTAGTTGCCCTCATGAATCCATGACGGAGTCACCTAGTGCAG”, for which the binding signal was 40400 fluorescence intensity (a.u.).
Next, “GTTTAGATGATCTACAGTCAATAAGTAACTGTCTTGAAGACGGAGTCACCTAGTGCAG”: 4470 fluorescence intensity (a.u.); “GTCATAATTTGAAATTCAAATTTAAACTATTCAAACAAAGCGGAGTCACCTAGTGCAG”: 23300 fluorescence intensity (a.u.); “GTGATTTACTTTATTATCAAAAGTAAGTATGACTTATCCTCGGAGTCACCTAGTGCAG”: 3870 fluorescence intensity (a.u.).
Next, “ATTCGTCGAATGATAATCATGGCGATAGATTAAGACGCGACGGAGTCACCTAGTGCAG”: 6670 fluorescence intensity (a.u.).
As for “AGATGATTGGGATAGTTCTCTGGACAGTGATGTGGCATCACGGAGTCACCTAGTGCAG”, the binding signal is 25000 fluorescence intensity (a.u.).
Next, “AGCAGATATTAATTTAATGCTGATCACTGAACATTGATGACGGAGTCACCTAGTGCAG”: 13200 fluorescence intensity (a.u.).
Next, “ATATTTAGACACTAATTTAGAGTATTAAATATAGACTACTCGGAGTCACCTAGTGCAG”: 8680 fluorescence intensity (a.u.); “AATGAATAAATTTGGCAGTCCAATAATATATATACTTCCACGGAGTCACCTAGTGCAG”: 3850 fluorescence intensity (a.u.).
Next, “ACTAGTAATTGCTTCTGGATGACTGAATTAGGTGCATAGACGGAGTCACCTAGTGCAG”: 21300 fluorescence intensity (a.u.); “TAATCTACCATTTGATAGACAATTTTCTAGTGTAGCTAAACGGAGTCACCTAGTGCAG”: 3980 fluorescence intensity (a.u.).
On to “ATAGATATAGATTTGGATTTGATTTGGATTTTGCAGCTCACGGAGTCACCTAGTGCAG”, for which the binding signal is 12200 fluorescence intensity (a.u.).
Next, “GCTGAAATATACTGATAGTTACAGACAAATATTCATTGGTCGGAGTCACCTAGTGCAG”: 3510 fluorescence intensity (a.u.); “CACATTTAATTCAAATTTCTGTTCGTCTTACAGTCAGCTACGGAGTCACCTAGTGCAG”: 3420 fluorescence intensity (a.u.).
Take “ATAGATGTTAATGAATTTATACGTAATATGAAACGGAATGCGGAGTCACCTAGTGCAG”: the binding signal is 6140 fluorescence intensity (a.u.).
Next, “GAAAATTTAACGAAGCAAACAAACAAAGGTGGTTGACCTGCGGAGTCACCTAGTGCAG”: 5110 fluorescence intensity (a.u.); “CCTGAGTGAGTCAAACAGAATTGCTTCCGTGTACATCGAGCGGAGTCACCTAGTGCAG”: 5660 fluorescence intensity (a.u.).
Next, “AATCAATCAATTGCTGATCGTCTGACTTATATAAGAGGGACGGAGTCACCTAGTGCAG”: 49000 fluorescence intensity (a.u.); “TTTGATTCATTGTTAAATATACTTTCATGTACACATATAGCGGAGTCACCTAGTGCAG”: 4200 fluorescence intensity (a.u.); “TTTAAAATGGACGGTTAGATTTGAATGGTATATACTTGGTCGGAGTCACCTAGTGCAG”: 8100 fluorescence intensity (a.u.).
Next, “GCTCTGTATATTGATTTGGTCAGTTGGATTAGGTCAACGACGGAGTCACCTAGTGCAG”: 4850 fluorescence intensity (a.u.); “TTGACCTTAATTTGATTATGTGACAATTCAGCTAGTAAATCGGAGTCACCTAGTGCAG”: 15800 fluorescence intensity (a.u.).
Turning to “ATCAGCAATCAGATCAGTACATCATCAAAGGGTGTGTAGTCGGAGTCACCTAGTGCAG”, the binding signal was 4610 fluorescence intensity (a.u.).
For “TCTAATTATATAATGTTTGTCTATTATAAAATATAGACAACGGAGTCACCTAGTGCAG”, the binding signal was 23800 fluorescence intensity (a.u.).
Next, “TCCTAGGTGATCTGGGTGATTGTGAGTGAGTTTTGTTTCGCGGAGTCACCTAGTGCAG”: 4180 fluorescence intensity (a.u.); “TATGAATGCATTATGATTACTATTTGCTAATCATAAGTGGCGGAGTCACCTAGTGCAG”: 11000 fluorescence intensity (a.u.).
